# Measured values taken from patent US6642257B2, “Agents for treating neuropathic pain” (Mochida Pharmaceutical Co., Ltd., priority 1999, dated 2003).
# Tested on: persistent sodium current in neuroblastoma cells
# Test: Voltage-clamp, veratridine-induced persistent sodium current
# Experimental: This experiment was undertaken by the method disclosed by Verdonck et al., Eur. J. Pharmacol., 203:371, 1991. Neuroblastoma cells were used. Isolated cells were strewn over a recording chamber filled with perfusion fluid; the membrane currents are recorded in a whole cell configuration by the voltage-clamp method based on the use of a glass microcapillary. Current components due to ions other than sodium ion were eliminated as follows. The potassium current was removed by cesium ion introduced in the capillary, and the calcium current was removed by cobalt ion added to the perfusion fluid. Measurement of the transient sodium current of the cells was achieved by applying depolarizing pulses at appropriate intervals to the cells clamped at holding potential, and by observing a transient inward current elicited therewith. The compound of Example 51 of this invention was added to the perfusion fluid; and its effect on the peak value of the inward current was followed. […] Observation of the persistent sodium current was achieved by adding veratridine to the perfusion fluid to 100 μmol/L, and shifting the holding potential towards depolarization, which caused a persistent inward current to develop in the cells. […] From results, concentration of the compound of this invention represented in Example 51 to inhibit the persistent sodium current by 18% is calculated at 7.2 μM. […]
compound,measurement,setting,value
"CC(C)Oc1ccc(N(C)CCC2(O)CCN(CCc3ccc(C#N)cc3)CC2)cc1.Cl.Cl [Example 51, 1-[2-(4-cyanophenyl)ethyl]-4-[2-[N-methyl-N-(4-isopropoxyphenyl)amino]ethyl]piperidin-4-ol dihydrochloride]",Ratio of concentration inhibiting the transient sodium current by 18% against that for the persistent sodium current,selectivity persistent vs transient,7.4
same,Concentration to inhibit the persistent sodium current by 18%,"veratridine 100 μmol/L, calculated from results",7.2 µM
